Measurements published in PubChem BioAssay AID463173 (ICCB-Longwood Screening Facility, Harvard Medical School, 2010).
About 1,700 (3.3%) of roughly 52,000 compounds were called active. Rule as the data show it: active = survival mostly below about 52% (no sharp cut-off); inactive = mostly above about 56%. The list shows a part of the results.

system: Wild type; experiment: S. aureus survival, RN4220 and DeltatarO strains – OD600, teichoic acid synthesis inhibitors, primary screen (AID 463173); details: S. aureus RN4220 wild type/DeltatarO growth, OD600, 18 h, hits give low values, screened at 18.75 µg/mL (by protocol)

| Structure (SMILES) | survival |
| --- | --- |
| Cn1c(=O)c2c(SCC(=O)NCc3ccco3)nc(-c3ccccc3F)nc2n(C)c1=O | inactive: 92% |
| COc1ccc(NC(=O)CC2C(=O)N(c3ccccc3)C(=O)N2Cc2cccnc2)cc1 (stereo not given) | inactive: 87% |
| CCOc1ccccc1NC(=O)COc1cccc2c(=O)n(CCOC)ccc12 | inactive: 79% |
| O=C(O)CNC(=O)c1cncc(O)c1 | inactive: 95% |
| Cc1ccc(NC(=O)Nc2cc3c(cc2N2CCCCC2)n(C)c(=O)n3C)cc1Cl | inactive: 131% |
| CCC1CCCCN1S(=O)(=O)c1ccc(N2CCCCS2(=O)=O)cc1 (stereo not given) | inactive: 83% |
| COc1ccc(-c2[nH]ncc2C(=O)NCc2cccc(F)c2)cc1 | inactive: 78% |
| COc1ccc(C2=NN(C(C)=O)C(c3cn(-c4ccccc4)nc3-c3cccs3)C2)cc1 (stereo not given) | inactive: 127% |
| CC(=O)Nc1c(C(=O)Nc2cccc(C)c2)nnn1-c1ccc(C)cc1 | inactive: 103% |
| CCOC(=O)c1ccc(NC(=O)c2c(C)oc3nc(C)nc(N4CCCC4)c23)cc1 | inactive: 78% |
| O=C(CCCc1nc(-c2ccco2)no1)Nc1ccccc1[N+](=O)[O-] | inactive: 81% |
| COc1cccc(-n2c(=O)c3c4c(sc3n(Cc3ccc(F)cc3Cl)c2=O)CCCC4)c1 | inactive: 134% |
| O=C(O)C1CCCCC1C(=O)Nc1cccc(C(=O)N2CCCCC2)c1 (stereo not given) | inactive: 103% |
| Cc1cc(N2CCN(C)CC2)nc2ccc(NC(=O)Nc3ccccc3)cc12 | inactive: 65% |
| O=C(CNS(=O)(=O)c1ccccc1)Nc1ccc2c(c1)OCO2 | inactive: 117% |
| CCc1ccc(NC(=O)CC(c2ccc(C)cc2)N2Cc3ccccc3C2=O)cc1 (stereo not given) | inactive: 121% |
| O=C1C2CCCN2C(=S)N1C1CCCCC1 (stereo not given) | inactive: 101% |
| COCCNC(=O)c1ccc2nc(CCc3ccccc3)oc2c1 | inactive: 118% |
| Cc1ccc(-n2nc(-c3ccc(F)cc3)c3cnc4cc5c(cc4c32)OCO5)cc1C | inactive: 81% |
| CCc1ccc(-c2cc(C)no2)cc1S(=O)(=O)N1CCN(c2cccc(Cl)c2)CC1 | inactive: 72% |
| Cc1c(C(=O)Nc2ccc(Br)cc2F)oc2ccc(S(=O)(=O)N3CCC4(CC3)OCCO4)cc12 | inactive: 71% |
| COc1ccc(NC(=O)c2oc3ccc(S(=O)(=O)N(C)C4CCCCC4)cc3c2C)cc1Cl | inactive: 68% |
| O=C(CCC1CCCCC1)Nc1ncn[nH]1 | inactive: 114% |

| Structure (SMILES) | survival |
| --- | --- |
| Cc1ccc(Cl)cc1N1CCN(C(=O)CCSCc2ccccc2F)CC1 | inactive: 85% |
| Cc1ccc(CCNC(=O)c2sc3ncccc3c2-n2c(C)ccc2C)cc1 | inactive: 75% |
| CC1CCCCN1c1c(S(=O)(=O)c2ccc(Cl)cc2)cnc2ccccc12 (stereo not given) | active: 3% |
| CCC(=O)Nc1ccc(CC)cc1-c1nc2ccccc2n(CC(=O)Nc2cccc(OC)c2)c1=O | inactive: 69% |
| COC(CN(C)S(=O)(=O)c1ccc(Br)cc1)OC | inactive: 102% |
| Cc1cc(C)cc(-n2ccnc(NCCc3ccccc3)c2=O)c1 | inactive: 75% |
| COc1ccc(OC)c(N(CC(=O)N2CCN(c3ccccc3F)CC2)S(C)(=O)=O)c1 | inactive: 89% |
| COc1ccc(-c2nc(CS(=O)CC(=O)NCCc3ccccc3)c(C)o2)cc1OC (stereo not given) | inactive: 88% |
| CCOC(=O)c1cc2c(=O)n3ccccc3nc2n(CC(C)C)c1=NC(=O)COc1ccc(Cl)cc1 | inactive: 115% |
| COc1ccc(C(=O)Nc2ccc3nc4c(c(Nc5ccc(OC)c(OC)c5)c3c2)CCCC4)c(OC)c1 | inactive: 76% |
| Cc1ccc2oc(C(=O)Nc3ccc(S(=O)(=O)N4CCCC(C)C4)cc3)cc(=O)c2c1 (stereo not given) | inactive: 82% |
| Cc1ccc(C)c(N2CCN(C(=O)c3cnn(C(C)(C)C)c3C3CCN(C(=O)OC(C)(C)C)CC3)CC2)c1 | inactive: 77% |
| CCn1cc2nc(SCc3cccc(C(F)(F)F)c3)n(Cc3ccc(Cl)cc3)c(=O)c2n1 | inactive: 146% |
| COc1ccc(OC)c(NC(=O)CCCc2nnc3n(C(C)C)c(=O)c4sccc4n23)c1 | inactive: 85% |
| Cc1ccc(Cl)cc1-n1nnc(-c2nsc(NC(=O)c3ccccc3Cl)n2)c1C | inactive: 30% |
| COc1ccc(C)cc1NC(=O)N1CCC(CN2CCOCC2)CC1 | inactive: 82% |
| Cc1ccc(N(CC(=O)N2CCN(c3cccc(Cl)c3)CC2)S(=O)(=O)c2c(C)noc2C)cc1 | inactive: 78% |
| CCc1ccc(-n2c(=O)c3ccccc3n(CC(=O)NCCc3ccc(OC)c(OC)c3)c2=O)cc1 | inactive: 102% |
| COc1ccc(Cl)cc1NC(=O)NCCn1c(=O)oc2ccc(C)cc21 | inactive: 62% |
| Cc1ccccc1NC(=O)c1c(NC(=O)c2ccccc2)sc2c1CCC2 | inactive: 137% |
| OCCN(Cc1ccccc1)Cc1ccccc1O | inactive: 89% |
| Cc1ccc2cc3cc(C(=O)N4CCN(c5ccc(Cl)cc5)CC4)oc3nc2c1 | inactive: 86% |
| CCOc1ccc(NC(=O)CC2C(=O)N(c3ccccc3)C(=O)N2CCc2cccs2)cc1 (stereo not given) | inactive: 63% |

| Structure (SMILES) | survival |
| --- | --- |
| Cn1c(SCC(=O)NC(C)(C)C)nc2cccnc21 | inactive: 107% |
| Fc1cccc(-c2cc3nc4c(c(NCCCN5CCOCC5)n3n2)CCCC4)c1 | inactive: 103% |
| COc1ccc(-c2cn3nc(N4CCC(C(=O)Nc5ccccc5OC)CC4)sc3n2)cc1 | inactive: 54% |
| CCN(CC)C(=O)c1sc2c(c1C)c(=O)n(-c1ccccc1)c(=O)n2Cc1c(C)cc(C)cc1C | inactive: 71% |
| CC(C)C(NS(=O)(=O)c1ccc2c(c1)oc(=O)n2C)C(=O)N1CCN(c2cccc(Cl)c2)CC1 (stereo not given) | inactive: 131% |
| COC(=O)/C(C#N)=C/c1ccc(C)s1 | inactive: 109% |
| CCN(CC)C(=O)c1ccc2c(c1)N(Cc1c(F)cccc1Cl)C(=O)c1ccccc1S2 | active: 16% |
| COc1ccc(NC(=O)C(Cc2c[nH]c3ccccc23)NC(=O)OC(C)(C)C)cc1 (stereo not given) | inactive: 82% |
| Cc1ccn2c(Nc3c(C)cccc3C)c(-c3ccsc3)nc2c1 | inactive: 54% |
| COC(=O)Cn1c(=NC(=O)c2ccc3c(c2)OCCO3)sc2ccccc21 | inactive: 99% |
| N#Cc1c[nH]n2c(=O)cc(Cc3ccccc3)nc12 | inactive: 109% |
| COc1ccc(N2CC(NC(=O)c3cccs3)CC2=O)cc1 (stereo not given) | inactive: 70% |
| CCN(CC)CC(=O)Nc1sc2c(c1C#N)CCCC2 | inactive: 111% |
| O=C(CSc1nc(=O)[nH]c2c1CCCC2)Nc1ccc(Cl)c(Cl)c1 | inactive: 95% |
| CC1(C)Cc2c(ccc3ccccc23)CN1 | inactive: 105% |
| CN(Cc1ccccc1)c1nnc(NC(=O)Nc2cccc(Br)c2)s1 | inactive: 113% |
| Cc1ccc(-n2nc(C(=O)Nc3ccc(F)cc3Cl)c(=O)n(C)c2=O)cc1 | inactive: 68% |
| CCN(CC)S(=O)(=O)c1ccc(NC(=O)c2cc3ccc4cccnc4c3[nH]2)cc1 | inactive: 70% |
| Cc1cc(N2CCN(C)CC2)nc2ccc(NC(=O)c3ccc(C(C)(C)C)cc3)cc12 | active: -20% |
| Cc1ccc(C(=O)n2nc(C)c(S(=O)(=O)N3CCCCCC3)c2C)cc1C | inactive: 55% |
| COc1ccc(Cn2c(=O)n(-c3ccc(F)c(Cl)c3)c(=O)c3c2c2cc(OC)ccc2n3C)cc1 | inactive: 91% |
| CCc1nnc(NC(=O)CSc2nccn2Cc2ccc(C)cc2)s1 | inactive: 73% |
| COc1ccccc1NC(=O)CSc1nc(O)c(C/C=C/c2ccccc2)c(=O)[nH]1 | inactive: 74% |

| Structure (SMILES) | survival |
| --- | --- |
| COc1ccc(CNC(=O)c2nc(SCc3ccc(C)cc3)ncc2Cl)cc1 | inactive: 92% |
| CCOc1cccc2sc(N3CCN(C(=O)c4ccc5c(c4)CCCC5)CC3)nc12 | inactive: 75% |
| CCOC(=O)c1c(S(=O)(=O)N2CCC(C(=O)NCc3cccc(C)c3)CC2)c(C)n(C)c1C | inactive: 69% |
| O=C(O)CCC(=O)Nc1ccc2c(c1)oc1ccccc12 | inactive: 106% |
| CCCCOc1ccc(C2(C)NC(=O)N(C)C2=O)cc1 (stereo not given) | inactive: 112% |
| CCCCc1ccc(NC(=O)c2cc(-c3ccc(C)c(F)c3)on2)cc1 | inactive: 87% |
| Cn1c(=O)c2sccc2n2c(CCC(=O)N3CCN(c4ccc(F)cc4)CC3)nnc12 | inactive: 151% |
| CCc1ccc2[nH]c(=O)c(CN(CCCO)C(=O)Nc3ccccc3)cc2c1 | inactive: 107% |
| Cc1ccc(OCc2nc(-c3ccc(C(=O)NCCc4ccc(Cl)cc4)cc3)oc2C)cc1 | inactive: 69% |
| Cc1ccc(NC(=O)CN2C(=O)CCc3ccccc32)cc1C | inactive: 85% |
| CC(C)Nc1ccc(-c2nc(-c3ccncc3)no2)cc1[N+](=O)[O-] | inactive: 79% |
| COc1ccc(NC(=O)c2nn(C)c3c2CS(=O)(=O)c2ccccc2-3)cc1Cl | inactive: 91% |
| COc1ccc(C2=C(Nc3ccc(Br)c(C)c3)c3ccccc3C2=O)cc1 | active: 20% |
| Cc1ccccc1CN1C(=O)c2ccccc2Sc2ccc(C(=O)NC3CCCCC3)cc21 | inactive: 74% |
| CC1=NN(Cc2ccccc2)C(=O)/C1=C\c1ccc(N(C)C)cc1 | inactive: 107% |
| CCc1nn(CC(=O)N2CCN(c3cccc(OC)c3)CC2)c(=O)c2cc3occc3n12 | inactive: 80% |
| CCN(CC)C(=O)CSc1nc2cccnc2n1-c1ccccc1OC | inactive: 107% |
| COc1ccc(N(CC(=O)NC(C)c2ccccc2)S(=O)(=O)c2c(C)nn(C)c2C)cc1 (stereo not given) | inactive: 89% |
| COc1ccc(N2CCN(Cc3nc4c(c(=O)[nH]c(=O)n4C)n3Cc3ccc(C)cc3)CC2)cc1 | inactive: 113% |
| CCOC(=O)c1c(C)[nH]c(C)c1S(=O)(=O)N1CCCC(C(=O)N2CCN(c3ccccc3F)CC2)C1 (stereo not given) | inactive: 82% |
| CC1CN(C(=O)CCC(=O)NCc2cccc(Cl)c2)c2ccccc2S1 (stereo not given) | inactive: 108% |
